# Data: ChEMBL document CHEMBL1201862, “PubChem BioAssay data set” (2004)
# Test system: NCI-H322M
# Assay: NCI anticancer screen, dose series, 48 h
row,Structure (SMILES),GI50
1,O=C(O)CSc1ccc2nc3ccccc3c(O)c2c1,inactive: > 100 µM
2,O=C(O)CCC1COc2ccccc2O1 (stereo unspecified),inactive: > 10 µM
3,Cn1c(=O)c2nc(CCCCc3nc4ccccc4[nH]3)[nH]c2n(C)c1=O,inactive: > 100 µM
4,CCOC(=O)C1(Cc2ccccc2)C=CN(C(=O)c2ccccc2)C=C1,inactive: > 100 µM
5,COc1ccccc1NC(=O)CC(=O)N1N=C(C)C(/N=N/c2ccc(C(=O)O)cc2)C1=O (stereo unspecified),inactive: > 100 µM
6,O=C(O)/C=N/NC(=S)NC1CCCCC1,inactive: > 100 µM
7,CNC(=S)N/N=C(\C(=N/NC(=S)NC)c1ccccn1)c1ccccn1,inactive: 2.61 µM
8,COc1ccc(C(N)=O)cc1/N=N/N(C)C,inactive: > 100 µM
9,Cc1nc2ccc(S(=O)(=O)NS(=O)(=O)c3ccc(-c4ccccc4)cc3)cc2c(=O)n1NS(=O)(=O)c1ccc(-c2ccccc2)cc1,inactive: > 100 µM
10,CCCCCCOP(=O)(OCCCCCC)OC(C(=O)OC)C(F)(F)F (stereo unspecified),inactive: > 100 µM
11,Cc1ccc(C(CC(=O)C(C)(C)CN2CCCCC2)SCCS(=O)(=O)O)cc1 (stereo unspecified),inactive: 21.7 µM
12,O=C(O)c1ccc(Nc2cnc3ccc(C(F)(F)F)cc3n2)cc1,inactive: 17.3 µM
13,C=C(C)C(=O)N1c2ccc(OC)cc2CC1C(=O)OCC (stereo unspecified),inactive: > 100 µM
14,COc1cccc(N(CN2CC=CC2=O)C(C)=O)c1,inactive: > 100 µM
15,COC(=O)n1c(=O)n(-c2ccccc2)c(=O)n1C(=O)Nc1ccccc1,inactive: > 100 µM
16,Nc1nc(Cl)cc(NC23CC4CC(CC(C4)C2)C3)n1,inactive: 83.9 µM
17,CCOC(=O)c1cc2c(ccc3cc(C(=O)OCC)[nH]c32)[nH]1,inactive: 42.2 µM
18,CCCCCCCCCCCCCCCCCCNc1ccn(C2OC(COP(=O)(O)OCC(COP(=O)(O)OCC3OC(n4cc(C)c(=O)[nH]c4=O)CC3N=[N+]=[N-])OCCCCCCCCCCCCCCCCCC)C(O)C2O)c(=O)n1 (stereo unspecified),inactive: > 100 µM
19,CN(C)CCNC(=O)Cc1ccccc1Nc1c(Cl)cccc1Cl,inactive: 13.2 µM
20,CCC(=O)C(C(=O)CC)c1c(OC(=O)c2ccccc2)ccc(O)c1C(=O)OC,inactive: > 100 µM
21,C=CCNC(=O)/C=C\C(=O)O,inactive: > 100 µM
22,Cc1nc(Nc2ccccc2)sc1C(=O)CC(=O)C(=O)Nc1c(C(C)C)cccc1C(C)C,inactive: > 100 µM
23,N=c1oc2cc(O)ccc2cc1C(=O)NCc1ccccc1,inactive: 30.9 µM

row,Structure (SMILES),GI50
1,CO/N=C(\C(=O)O/C(=N/C1CCCCC1)NC1CCCCC1)c1csc(NC(c2ccccc2)(c2ccccc2)c2ccccc2)n1,inactive: > 10 µM
2,COc1ccc(N2C(=O)CS(=O)(=O)C2c2cccc(Oc3ccccc3)c2)cc1 (stereo unspecified),inactive: 7.23 µM
3,Cc1ccc2oc(=O)cc(CC(=O)O)c2c1,inactive: > 100 µM
4,COc1ccc(C(=O)O/N=C2/CCC/C2=C\c2ccccc2)cc1,inactive: > 100 µM
5,Cc1ccccc1C(=O)Oc1ccc(OCc2ccccc2)cc1,inactive: > 100 µM
6,COc1ccc(CC(CO)NC(=O)OCc2ccccc2)cc1Oc1ccc(CC(CO)NC(=O)OCc2ccccc2)cc1 (stereo unspecified),inactive: 19.3 µM
7,COc1ccc2nc(N/N=C/c3ccc(C)s3)cc(C)c2c1,inactive: 12.5 µM
8,O=C(c1ccccc1)c1ccc2c(c1)nc1n2C(c2c(F)cccc2F)SC1 (stereo unspecified),inactive: 37.8 µM
9,Cc1nn(-c2cc(Cl)ccc2[N+](=O)[O-])c(C)c1Cl,inactive: > 100 µM
10,CC(NC(CC12CC3CC(CC(C3)C1)C2)C(N)=O)c1ccccc1 (stereo unspecified),inactive: 32.1 µM
11,N#Cc1c(O)c2ccccc2[nH]c1=O,inactive: > 100 µM
12,O=C(Nc1ccc(Cl)c(Cl)c1)C(=O)C(C(=O)c1ccccc1F)C1OC(=O)c2ccccc21 (stereo unspecified),inactive: 24.6 µM
13,CC1CNC(c2ccc3c(c2)Cc2cc(C4=NC(C)CN4)ccc2-3)=N1 (stereo unspecified),inactive: 23.4 µM
14,CC(=O)OCC12CCC3C4(C)CCCC(C)(C)C4CCC3(C)C1CC(C1=CC(=O)OC1O)O2 (stereo unspecified),inactive: 1.87 µM
15,Nc1ccn([C@H]2CO[C@@H](CO)[C@@H]2O)c(=O)n1,inactive: > 100 µM
16,NC(=O)C(=O)N/N=C1/c2ccccc2CC1C1(O)C(=O)Nc2c(Cl)cc(Cl)cc21 (stereo unspecified),inactive: > 100 µM
17,COc1cc2c(c3c1c(=O)c1ccccc1n3C)C=CC1(CCCCC1)O2,inactive: 2.15 µM
18,CCOC(=O)CCC(NC(=O)Cc1ccc(Nc2nc3ccccc3nc2-c2cccs2)cc1)C(=O)OCC (stereo unspecified),inactive: 53 µM
19,COc1ccc(Nc2nc3c(N)cc(C(F)(F)F)cc3nc2-c2ccccc2)cc1,inactive: > 100 µM
20,COc1cc(C2=NN(C)C(c3ccc([N+](=O)[O-])o3)C2)cc(OC)c1OC (stereo unspecified),inactive: > 100 µM
21,CC[C@@H]1/C=C/C=C/C[C@H](C)[C@@H](O)[C@@H](C)C(=O)[C@H](C)[C@@H](O)[C@H](C)C(=O)[C@H](C)[C@@H](O)[C@H](C)/C=C/C(=O)O[C@H]2[C@@H](C)[C@@H](CC1)O[C@@]1(CC[C@@H](C)[C@@H](CC(C)O)O1)[C@@H]2C (stereo partly specified),inactive: 8.71 µM
22,O=C1CCCC/C1=C/C=C/c1ccccc1,inactive: > 100 µM
23,CC1CC[C@@]2(OC1)O[C@H]1C[C@H]3[C@@H]4CC[C@H]5C[C@@H](OC6OC(CO)C(OC7OC(CO)C(OC8OC(CO)C(O)C(OC9OC(C)C(OC%10OC(C)C(O)C(O)C%10O)C(O)C9O)C8OC8OCC(O)C(O)C8O)C(O)C7O)C(O)C6O)CC[C@]5(C)[C@H]4CC(=O)[C@]3(C)[C@H]1[C@@H]2C (stereo partly specified),inactive: 18.5 µM

row,Structure (SMILES),GI50
1,CCC(C)(C)NC1=C(NC(C)=O)C(=O)c2ccccc2C1=O,inactive: > 75 µM
2,NC(=O)C(=O)C1C(=O)N(c2ccccc2)N=C1N (stereo unspecified),inactive: > 100 µM
3,CC(C)(C)OC(=O)N1Cc2cc(O)ccc2C[C@H]1C(=O)O,inactive: > 100 µM
4,N#Cc1ccc(/N=C(/NCC(=O)O)Nc2cccc3ccccc23)cc1,inactive: > 10 µM
5,O=C(N/N=C(\c1nc2ccc(Cl)cc2nc1O)C(O)c1ccccc1Cl)c1ccncc1 (stereo unspecified),inactive: > 100 µM
6,COc1cc(CCNC2=CC(=O)c3nc[nH]c3C2=O)ccc1O,inactive: 25.6 µM
7,COCCOCCOC1=C(Cl)C(=O)c2c(O)ccc(O)c2C1=O,inactive: 13.2 µM
8,CN(C)CCNC(=O)c1cccc2cc3ccc4ccccc4c3nc12,active: 0.125 µM
9,ClCCCN(CCCCl)c1ccc(/C=N/c2cccc(Cl)c2)cc1,inactive: 21.5 µM
10,CC(=O)OCC1OC(n2cc(I)c(=O)[nH]c2=O)C(OC(C)=O)C(OC(C)=O)C1OC(C)=O (stereo unspecified),inactive: > 100 µM
11,NCCCN(CCCCN(CCCN)Cc1ccc2ccccc2c1)Cc1ccc2ccccc2c1,inactive: 1.82 µM
12,CC(C)(C)C(=O)Cc1cc2c(cc1C(=O)O)S(=O)(=O)NC(C(C)(C)C)=C2,inactive: > 100 µM
13,CC(=O)NCC1OC2COC(c3ccccc3)OC2C2N=C(c3ccccc3)OC12 (stereo unspecified),inactive: 99.8 µM
14,CC(=O)N1N=C(c2ccc3ccccc3c2O)CC1c1ccc(N(C)C)cc1 (stereo unspecified),inactive: > 100 µM
15,Nc1ccccc1-c1noc(=O)[nH]1,inactive: > 100 µM
16,O=C1NN=C2C=C(c3ccc(Cl)cc3)CC(c3cccc(Br)c3)C12 (stereo unspecified),inactive: > 100 µM
17,CCOC(=O)C(N)CSC(=O)NC (stereo unspecified),inactive: 282 µM
18,C[n+]1c2ccccc2n2c3ccccc3c(NCCCN3CCOCC3)c(C#N)c21,inactive: 1.45 µM
19,N#CC(Cl)CS(=O)(=O)c1ccccc1 (stereo unspecified),inactive: 15.6 µM
20,N#CCc1ccc(/C(C#N)=C2/OC(=N)C(c3ccc(CC#N)cc3)C2=O)cc1 (stereo unspecified),inactive: > 100 µM
21,CC(=O)Oc1ccccc1/C=C/C(=O)/C=C/c1ccccc1OC(C)=O,inactive: 2.3 µM
22,CCOC(=O)/C(C(=S)Nc1ccccc1)=C(/N)N1CCCC1,inactive: > 100 µM
23,CC1=NC2=Nc3nc(C)cc[n+]3CN2C=C1,inactive: > 100 µM

row,Structure (SMILES),GI50
1,CCOC(=O)c1nnc2c(C(=O)OCC)c3ccccc3n2c1N,inactive: 14.5 µM
2,O=c1ccc2c(Cl)sc(Cl)c2[nH]1,inactive: > 100 µM
3,COc1cc(N)c2[nH]c3c(C)ccc(C)c3c2c1,inactive: > 100 µM
4,CC(=O)C(C(=N)C#N)C(=O)Nc1ccccc1 (stereo unspecified),inactive: > 100 µM
5,CC1=NN(c2ccc(S(=O)(=O)O)cc2)C2(C1)SCC(=O)N2c1nc2ccccc2s1 (stereo unspecified),inactive: > 100 µM
6,O=C(C#Cc1ccccc1)N1CCCCC1,inactive: > 100 µM
7,O=C1/C(=C/c2ccc(Br)s2)NC(=S)N1CN1CCOCC1,inactive: > 100 µM
8,O=C1C(C(O)(C(F)(F)Cl)C(F)(F)Cl)CCC1C(O)(C(F)(F)Cl)C(F)(F)Cl (stereo unspecified),inactive: 5.04 µM
9,O=C[C@@H](CO)O[C@H](C=O)n1cnc2c(=O)nc[nH]c21,inactive: 403 µM
10,C=C(C)[C@@]1(O)CCCC[C@@H]1CC(Sc1ccccc1)Sc1ccccc1,inactive: 16.6 µM
11,Cc1ccc(OCC2=NN3C(=O)/C(=C\c4ccc([N+](=O)[O-])o4)SC3N2)cc1 (stereo unspecified),inactive: 16.2 µM
12,c1ccc(C2OCCO2)c(OCCOc2cc(OCCOc3ccccc3C3OCCO3)c(OCCOc3ccccc3C3OCCO3)cc2OCCOc2ccccc2C2OCCO2)c1,inactive: > 100 µM
13,COc1cc(C(=O)N2CCc3c([nH]c4c([N+](=O)[O-])c(OC)ccc34)C2C)cc(OC)c1OC (stereo unspecified),inactive: > 100 µM
14,O=C1CC(Cl)c2c(Cl)sc(Cl)c21 (stereo unspecified),inactive: 15.5 µM
15,N#C[BH2-][n+]1cn(C2CC(OP(=O)(O)OCC3OC(n4cnc5c(=O)[nH]c(N)nc54)CC3O)C(CO)O2)c2nc(N)[nH]c(=O)c21 (stereo unspecified),inactive: > 100 µM
16,NS(=O)(=O)c1nnc(NC(=O)c2ccccc2)s1,inactive: > 100 µM
17,COc1ccc(/C=C/C(=O)c2ccccc2)cc1OC,inactive: 13.2 µM
18,C/C(=N\Nc1nc2ccccc2o1)c1cc(C)ncn1,active: 0.0865 µM
19,Cc1cc(C)c2c(O)cc(-c3ccc4ccccc4c3)nc2n1,inactive: 37.2 µM
20,Oc1cccc2c1[nH]c1c(C3=C[C@@]4(O)CC/C=C\CCCCN5CC[C@@H]3[C@]3(CC6/C=C\CCCCN6[C@H]34)C5)nccc12 (stereo partly specified),inactive: 3.4 µM
21,CNc1cccnc1/C=N/N=C(/N)S,inactive: 3.2 µM
22,CN(C)CCC1(C2=CCCC2)CC/C(=C\c2ccccc2Cl)C1=O (stereo unspecified),inactive: 14.5 µM

#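 Results reflect a 48-hour exposure of cells in 96-well plates to compound at five concentrations. GI50: concentration for 50% inhibition of growth.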 Activity calls are given as the source filed them. Cut-off read from the data, not from the text of the source: active = GI50 up to about 1.1 µM and inactive = higher.
